The values that follow come from PubChem BioAssay (NCI).

This assay has as its system ACHN renal. Kind of assay: NCI-60 one-dose screen, 48 h (100 = growth as untreated, 0 = no growth, -100 = all killed). Conditions: 0.25 µM.

More than one record can exist for a structure, and the calls need not agree.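 Results are percent growth after 48 hours of single-concentration exposure. 100 means growth as in untreated cells, lower positive values show inhibition; negative values down to -100 show cell death.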 Some entries of the source have several records that differ or are many. The list is limited to them. An entry can have further records. For part of these data: The screen tested this drug many times, at the concentration stated with the values; each value is one run. Brackets with × say how often a value occurs here. Entries with a single value are a further part of the results. The source made the active and inactive calls. The calls were made as follows: active = growth percent below 10; inactive = the rest.

Regarding `COc1cccc2c1C(=O)c1c(O)c3c(c(O)c1C2=O)C[C@@](O)(C(=O)CO)C[C@@H]3OC1CC(N)C(O)C(C)O1` (stereo not given in full), the growth was inactive: 36.7% (runs of 2006); “inactive: 47.9, 59, 52.9, 46.8, 45.5 (2×), 29.1, 35.5, 32.4, 39.9, 41.5, 44.4, 49.3, 48.6, 62.5, 26.9, 29.6 (2×), 38, 23.7, 28.3, 30.4, 43.8, 43, 41.8, 33.8, 51.4, 55.2, 56.1, 51.1, 46.7, 24.4, 51, 28.8, 29.5, 41.4, 30.2, 46.1, 34.5, 31.9, 43.4, 48%” (runs of 2007); “inactive: 37.8, 42.7, 47.9 (2×), 25.1, 33.6 (3×), 30.4, 32.4, 41, 39.9, 41.4 (2×), 47.8, 30.3, 39.7, 38.9, 34.5 (2×), 42.8, 35.7 (2×), 29.8, 32.1, 32.6, 21.8, 22.7, 33.9, 96.3, 31.2, 35, 30.7, 26.9, 51.4, 34.7, 41.7, 40.7, 30.1, 36.9, 35.5, 52.7, 49.7, 63.6, 60.9, 28.8, 33.5, 40.2, 25.5, 26.6, 33.4, 27.2, 44.3, 40.5, 47.7%” (runs of 2008); “inactive: 33.5, 46.9, 43.1 (2×), 23.3, 31.8, 34.9, 31.6 (2×), 34.2, 33.6, 37.3 (2×), 29.8, 31.1, 44.4, 28.9, 26.7 (2×), 36.8, 39.2, 38.1 (2×), 35.2, 22.4, 24.9, 32.7, 30.2, 29.5 (2×), 26.1, 30.5, 23.7, 30.4, 33.9, 41.8, 36.3, 32.9, 39.5, 34.5, 29.7, 28.6, 32.8, 28.3, 41.2, 32.6, 33.4, 45.7, 47, 21.6, 13.5, 11.6, 19.2, 27.1, 30.7, 25.9, 40.5, 23.9, 21.4, 24.2, 39, 40.6, 28, 24.4, 33.1%” (runs of 2009); “inactive: 37.3 (2×), 30.4, 29.5, 20.3, 25.6, 31.6, 28.4 (2×), 21.1, 30.9, 29.8 (2×), 27.1, 30.3, 21.2, 23.8, 20.8 (2×), 24.7, 28.8 (2×), 37, 36.3, 41.9, 19.2, 25.5 (2×), 12.6, 16.5, 22.4, 25.1, 25.9, 16.2, 23.3, 30.2, 32.6, 32.7, 40, 23.1, 30.1, 24.3, 27.5, 27.2, 26.7, 39.3, 48.6, 38.8, 42.4% and active: 9.71%, 1.21%” (runs of 2010); “inactive: 37.7, 37, 30.9 (2×), 29.4 (2×), 31.9, 24.9, 32.8, 29.9 (2×), 36.4, 33.1, 37.6, 35.2, 38.8, 36.3, 41.2, 43.6, 38 (2×), 44.2, 28.2, 30.2, 31.2 (2×), 26.7, 43.4, 39.9, 28, 34 (2×), 33.3, 31.7 (2×), 32.6 (2×), 33, 41.1, 32.5, 22.1, 23.1, 21.7, 19.5, 22.4, 29.2, 32.2, 26.2, 24.3, 33.5, 29.6 (2×), 31, 32.9, 27.7, 30.1%” (runs of 2011). Also, the growth result was “inactive: 28.6, 23.4, 25.7, 26.5, 32.6, 31.5 (2×), 35.1, 31.6, 24.2, 22.6 (2×), 22.7, 18.5 (2×), 27.1 (2×), 27.2 (2×), 28.5, 18.2, 21.6, 27.7, 26.7, 26.9 (2×), 26, 28.1, 15.5, 28.8, 17.3, 25.1, 35.6, 30.3, 43.3, 36.3, 39.7, 42.1, 50.6, 51.8, 49.7 (2×), 49.6, 48.1, 43.1, 52.4, 46.1, 42.5, 36.9, 31.9 (2×), 25.3, 29.2, 29.5, 27.5, 28.3, 37.9, 44.4, 38, 48, 39%” (runs of 2012); “inactive: 26.7, 31.9 (2×), 48.3, 44.4, 32.6 (3×), 35, 29.8, 29.3, 36.7, 42.6, 30.5, 34.9 (2×), 37.8, 34.4, 37.4, 43.3 (2×), 38.8, 37, 39.4, 40.7, 44.2, 40.3, 38.1 (2×), 41.7, 45.4, 38, 36.8 (2×), 40.4, 39, 41.4, 30.4, 28.9, 32.1, 36.4, 45.1, 40.9, 40.5, 37.6, 36.2, 38.6, 44.7, 45.5, 40.6, 49.8, 33.6, 30.7 (2×), 40, 32.4, 33.5, 11.8, 18.9, 11.4, 13.8, 25.1, 34.7, 32.2, 23.4, 24.7% and active: 7.38%” (runs of 2013); “inactive: 30.3, 36.8 (2×), 21.7, 27.4, 23.7 (3×), 27.5, 24 (3×), 24.7 (2×), 25.9, 33, 33.8, 37.7, 42.8 (2×), 38.6 (2×), 50.9, 44.6, 41.9, 45.6, 46.4, 34, 38 (2×), 24.2, 24.6, 19.5, 17.1, 20.6, 22.6, 20.5, 21, 22.2, 25.2 (2×), 20.4, 13.9, 17.4 (2×), 21.1, 25.1, 17.2, 23.8, 29.7, 32.8, 14.3, 12.9, 17.8, 20.1, 16.8, 18.4, 42.1, 33.4, 28.8, 28.6 (2×), 43.4, 34.9 (2×), 41.7, 30.2 (2×), 41.1, 31, 39.8, 32.4, 21.8, 23.2, 32, 35.1, 26, 23.9%” (runs of 2014); “inactive: 31.7, 38.3, 38.7 (2×), 37.8, 29.5, 36.2, 33, 30.6, 41.1, 35.1, 48, 47, 34.7 (4×), 51.2, 33.6 (2×), 29.4, 18.7, 22.6, 22.7, 28.5 (2×), 25.5, 35.5, 32.2, 30.1, 30.3, 27.9, 27.5 (2×), 30.2, 34.4 (2×), 34, 31.2, 33.1, 35.6, 29.1 (3×), 19.8, 26.7, 23.6, 22.3, 25.7, 25.9, 30.5, 24.5, 26.2, 27, 29.8, 40.3, 52.9, 21.4, 38.5, 33.3, 31.5, 44.2, 38, 45.3, 47.7, 32.6, 32.7 (2×), 33.8, 25.3, 25.6, 27.4, 35.7, 32.8, 31.8, 21.8, 30.7%” (runs of 2015); “inactive: 35.5, 35.7, 40.4, 38.6, 30, 37, 18.4, 23.7, 25.9 (2×), 33.1, 23.4, 30.4, 22.7, 28.6 (2×), 19.9, 26.1, 17.7, 24.5 (2×), 32.1 (3×), 26.7, 31.7, 25.7, 31.3, 32.4, 26.6, 25.8, 34.7, 28.9, 32.8, 27.7, 37.7, 49.6, 41.1, 36.4, 41.2, 48.4, 54.5, 42.2, 52, 49, 41, 33.5, 30.1, 35.1, 30.5, 24.2, 29.9, 25.5, 32.2, 33, 33.2, 36.2, 33.8, 37.5, 54.4, 47.9, 37.8, 41.4, 44.4, 47.8, 29.1, 32.7, 26.5, 42.7, 45.4%” (runs of 2016); “inactive: 42, 44.2, 36.5, 39.4, 40.1, 44.9, 39 (2×), 30.6, 36.9, 42.7, 48.8, 49.2, 40.4, 44.1, 52, 51.7, 24.7 (3×), 24.1, 22.6, 24.4 (2×), 22.8, 21.3, 28.4, 25.5, 30.9 (2×), 29.5, 33.6, 33.3, 35.5, 35.1, 40.7, 41 (2×), 30.2, 39.2, 36.2, 43.6, 36.4, 39.8, 51.2, 55.1, 29.1 (3×), 25.8, 26.1, 23.4, 24.9, 30.5, 29.7, 25.1, 26.6, 27.9, 34.7, 33, 35, 31.3, 33.4, 40, 38.6, 40.5, 47.2, 32.3, 42.4, 44.8, 23.7, 25.4 (2×), 52.6, 56.5, 45.1, 28.6, 29.2, 25.2%” (runs of 2017). The growth result (runs of 2018) was “inactive: 33.5, 35.9, 29.3, 31.3, 41, 38.6 (3×), 35.1, 38.9, 38, 39.7, 40.4, 45.5, 52, 51.1, 54, 57.1, 56.6, 51.3, 51.5, 27.7 (2×), 30.5, 25.7 (3×), 37.7, 38.5, 44.2, 42.4, 48.3, 47.4, 24.5, 25.3, 26.5, 27.1, 25.6, 28.1, 24.4, 27.5, 27, 29.5, 32.1, 29.2, 36.2, 38.8, 40.3, 43.3, 46.2, 38.4, 37.4, 28.4, 27.4, 15.4, 20.1%”; the growth result (runs of 2019) was “inactive: 29.5 (2×), 20.3, 31.6, 32.9, 44.8, 37.5, 29.2, 33.6, 37.8, 36.7, 43.1, 35.2, 25.2, 27.6, 19.8, 18.9, 21.3, 23.2, 26.7, 25.8, 26.6, 27.4, 32.1, 42, 32.6, 36, 40, 18.6, 25.3, 17.9, 21.4, 19.1, 19.9, 24.5, 25.1, 27.1, 35.1, 32.5, 41, 26.9, 16.8, 21, 20.5%”; the growth result (runs of 2020) is “inactive: 18.2, 17.8, 26.5, 31 (2×), 29.2, 28.4, 31.9, 32.2, 21, 18.6, 27.5, 23.4, 32.1, 30.3, 44.4, 40.9, 41.2, 34.2, 38.7, 42.6%”.
